Measurements reported in the supplement of paper PMC8728848.
The other results are listed elsewhere or left out.

Experiments:
Assay in all cases: glycan array binding signal (z-score within array); higher = stronger binding
Details in all cases: glycan notation: IUPAC condensed, linker removed
[1] = target: Gal(b1-4)GlcNAc(b1-3)Gal(b1-4)GlcNAc(b1-3)Gal(b1-4)GlcNAc(b1-3)Gal(b1-4)GlcNAc(b1-2)Man(a1-3)[Gal(b1-4)GlcNAc(b1-3)Gal(b1-4)GlcNAc(b1-3)Gal(b1-4)GlcNAc(b1-3)Gal(b1-4)GlcNAc(b1-2)Man(a1-6)]Man(b1-4)GlcNAc(b1-4)[Fuc(a1-6)]GlcNAc
Outline: (§1)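 Columns mapping to the same glycan were averaged after glycan names were converted to IUPAC-condensed notation. The data come from 3228 arrays in the Consortium for Functional Glycomics database, limited to those with an available protein sequence. Binding is reported as a within-array Z-score averaged across arrays of one protein sequence and across linkers.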

[2] = target: Gal(b1-4)GlcNAc(b1-3)Gal(b1-4)GlcNAc(b1-3)Gal(b1-4)GlcNAc(b1-3)Gal(b1-4)GlcNAc(b1-2)[Gal(b1-4)GlcNAc(b1-3)Gal(b1-4)GlcNAc(b1-3)Gal(b1-4)GlcNAc(b1-3)Gal(b1-4)GlcNAc(b1-6)]Man(a1-6)[Gal(b1-4)GlcNAc(b1-3)Gal(b1-4)GlcNAc(b1-3)Gal(b1-4)GlcNAc(b1-3)Gal(b1-4)GlcNAc(b1-2)Man(a1-3)]Man(b1-4)GlcNAc(b1-4)[Fuc(a1-6)]GlcNAc
Outline: as §1

[3] = target: Gal(b1-4)GlcNAc(b1-3)Gal(b1-4)GlcNAc(b1-3)Gal(b1-4)GlcNAc(b1-3)Gal(b1-4)GlcNAc(b1-3)Gal(b1-4)GlcNAc(b1-2)Man(a1-3)[Gal(b1-4)GlcNAc(b1-3)Gal(b1-4)GlcNAc(b1-3)Gal(b1-4)GlcNAc(b1-3)Gal(b1-4)GlcNAc(b1-3)Gal(b1-4)GlcNAc(b1-2)Man(a1-6)]Man(b1-4)GlcNAc(b1-4)GlcNAc
Outline: as §1

[4] = target: Gal(b1-4)GlcNAc(b1-3)Gal(b1-4)GlcNAc(b1-3)Gal(b1-4)GlcNAc(b1-3)Gal(b1-4)GlcNAc(b1-3)Gal(b1-4)GlcNAc(b1-2)Man(a1-3)[Gal(b1-4)GlcNAc(b1-3)Gal(b1-4)GlcNAc(b1-3)Gal(b1-4)GlcNAc(b1-3)Gal(b1-4)GlcNAc(b1-3)Gal(b1-4)GlcNAc(b1-2)Man(a1-6)]Man(b1-4)GlcNAc(b1-4)[Fuc(a1-6)]GlcNAc
Outline: as §1

[5] = target: Gal(b1-4)GlcNAc(b1-3)Gal(b1-4)GlcNAc(b1-3)Gal(b1-4)GlcNAc(b1-3)Gal(b1-4)GlcNAc(b1-3)Gal(b1-4)GlcNAc(b1-2)[Gal(b1-4)GlcNAc(b1-3)Gal(b1-4)GlcNAc(b1-3)Gal(b1-4)GlcNAc(b1-3)Gal(b1-4)GlcNAc(b1-3)Gal(b1-4)GlcNAc(b1-6)]Man(a1-6)[Gal(b1-4)GlcNAc(b1-3)Gal(b1-4)GlcNAc(b1-3)Gal(b1-4)GlcNAc(b1-3)Gal(b1-4)GlcNAc(b1-3)Gal(b1-4)GlcNAc(b1-2)Man(a1-3)]Man(b1-4)GlcNAc(b1-4)[Fuc(a1-6)]GlcNAc
Outline: as §1

[6] = target: Gal(b1-4)GlcNAc(b1-3)Gal(b1-4)GlcNAc(b1-3)Gal(b1-4)GlcNAc(b1-3)Gal(b1-4)GlcNAc(b1-3)Gal(b1-4)GlcNAc(b1-3)Gal(b1-4)GlcNAc(b1-2)Man(a1-3)[Gal(b1-4)GlcNAc(b1-3)Gal(b1-4)GlcNAc(b1-3)Gal(b1-4)GlcNAc(b1-3)Gal(b1-4)GlcNAc(b1-3)Gal(b1-4)GlcNAc(b1-3)Gal(b1-4)GlcNAc(b1-2)Man(a1-6)]Man(b1-4)GlcNAc(b1-4)GlcNAc
Outline: as §1

[7] = target: Gal(b1-4)GlcNAc(b1-3)Gal(b1-4)GlcNAc(b1-3)GalNAc
Outline: as §1

[8] = target: Gal(b1-4)GlcNAc(b1-3)Gal(b1-4)GlcNAc(b1-3)[Gal(b1-4)GlcNAc(b1-3)Gal(b1-4)GlcNAc(b1-6)]GalNAc
Outline: as §1

[9] = target: Gal(b1-4)GlcNAc(b1-3)Gal(b1-4)GlcNAc(b1-6)[Gal(b1-3)]GalNAc
Outline: as §1

[10] = target: Gal(b1-4)GlcNAc(b1-3)Gal(b1-4)[Fuc(a1-3)]GlcNAc(b1-3)Gal(b1-4)[Fuc(a1-3)]GlcNAc
Outline: as §1

[11] = target: Gal(b1-4)GlcNAc(b1-3)GalNAc
Outline: as §1

[12] = target: Gal(b1-4)GlcNAc(b1-3)[Fuc(a1-3)GlcNAc(b1-6)]Gal(b1-4)Glc
Outline: as §1

[13] = target: Gal(b1-4)GlcNAc(b1-3)[Gal(b1-4)GlcNAc(b1-6)]Gal(b1-4)GlcNAc
Outline: as §1

[14] = target: Gal(b1-4)GlcNAc(b1-3)[GlcNAc(b1-6)]Gal(b1-4)GlcNAc
Outline: as §1

[15] = target: Gal(b1-4)GlcNAc(b1-6)Gal(b1-4)GlcNAc
Outline: as §1

[16] = target: Gal(b1-4)GlcNAc(b1-6)GalNAc
Outline: as §1

[17] = target: Gal(b1-4)GlcNAc(b1-6)[Gal(b1-3)]GalNAc
Outline: as §1

[18] = target: Gal(b1-4)GlcNAc(b1-6)[Gal(b1-4)GlcNAc(b1-3)]GalNAc
Outline: as §1

Gal(b1-4)GlcNAc6P = target: Gal(b1-4)GlcNAc6P
Outline: as §1

Gal(b1-6)Gal = target: Gal(b1-6)Gal
Outline: as §1

Gal3S(b1-3)GalNAc = target: Gal3S(b1-3)GalNAc
Outline: as §1

Gal3S(b1-3)GlcNAc = target: Gal3S(b1-3)GlcNAc
Outline: as §1

[19] = target: Gal3S(b1-3)[Fuc(a1-4)]GlcNAc
Outline: as §1

B1: PfulAvr4 (Pseudocercospora fuligena) (protein)
chain: HHHHHHDYKDDDDKTYVQDKTPAFVCPAADIKTTKCLGPKDCLYPSPKTCNGYIQCSPADDSYLTGIIHEMPCPSGLLWNDNKKWCDWPENTTCGLVKSAGATEVDATKQGPTPGKYHG
- glycan array binding signal (z-score) [1]: -0.135
- glycan array binding signal (z-score) [2]: 0.06
- glycan array binding signal (z-score) [3]: 0.012
- glycan array binding signal (z-score) [4]: 0.048
- glycan array binding signal (z-score) [5]: -0.064
- glycan array binding signal (z-score) [6]: -0.109
- glycan array binding signal (z-score) [7]: -0.065
- glycan array binding signal (z-score) [8]: 0.081
- glycan array binding signal (z-score) [9]: -0.067
- glycan array binding signal (z-score) [10]: -0.139
- glycan array binding signal (z-score) [11]: -0.096
- glycan array binding signal (z-score) [12]: -0.136
- glycan array binding signal (z-score) [13]: -0.169
- glycan array binding signal (z-score) [14]: 1.21
- glycan array binding signal (z-score) [15]: 0.05
- glycan array binding signal (z-score) [16]: -0.101
- glycan array binding signal (z-score) [17]: 0.157
- glycan array binding signal (z-score) [18]: -0.051
- glycan array binding signal (z-score) (Gal(b1-4)GlcNAc6P): -0.097
- glycan array binding signal (z-score) (Gal(b1-6)Gal): -0.156
- glycan array binding signal (z-score) (Gal3S(b1-3)GalNAc): -0.101
- glycan array binding signal (z-score) (Gal3S(b1-3)GlcNAc): -0.036
- glycan array binding signal (z-score) [19]: 0
